Measurements from PubChem BioAssay AID1347417 (National Center for Advancing Translational Sciences (NCATS), 2020).
The whole screen tested about 120,000 compounds, of which about 5,300 (4.4%) were called active. The shares of active, inactive and inconclusive entries below differ from those in the screen. Calls come from the whole dose curve; as a rule, active = well fitted inhibition curve with a large enough effect; inconclusive = small, poorly fitted or top-dose-only effect; inactive = no such curve, though single readings can be large or run the other way. Where the call is inconclusive, the potency comes from a doubtful curve fit.

Experiment: qHTS Primary assay for Inhibitors of Plasmodium falciparum Dd2 growth in vitro; note: nearly all actives have a fitted effect of over 65% in size;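 for activity, negative = inhibition: plate controls were DMSO vehicle for no effect and reference drug for full effect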
Conditions: P. falciparum Dd2 growth, SYBR Green, 72 h; activity, negative = inhibition: at 28.9 µM (top of the series) unless noted; series mostly up to 28.9 µM
How it was run: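 Readout: SYBR Green fluorescence, 485 nm excitation, 535 nm emission, after ~16 h lysis at 37C. Before that, Dd2-infected red cells (2.5% hematocrit) grew 72 h with compound, 29 uM top final concentration.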
Potency is the fitted concentration of half-maximal effect; tags give direction and shape of the fitted curve.

| SMILES | Potency | activity, negative = inhibition |
| --- | --- | --- |
| O=C(NC1CCCCC1)c1ccc(N2CC3CC(C2)[C@H]2CCCC(=O)N2C3)nc1 (stereo partly drawn) | inactive |  |
| CCCCN(C)CCCNC(=O)CN1C(=O)COc2ccc(S(=O)(=O)N3CCC(C)CC3)cc21 | inconclusive: 10 µM [inhibitor, single point] |  |
| CCOC(=O)N1CCc2c(sc(NCc3sccc3C)c2C(=O)Nc2cc(OC)ccc2OC)C1 | inconclusive: 7.94 µM [inhibitor, partial curve, poor fit] |  |
| CCc1nc2c(c(-c3ccc(Cl)cc3)n1)CN(CCC(C)C)CC2 | active: 7.94 µM |  |
| Cc1ccc(OCc2nc(C3CCN(C(=O)c4c5c(nc6ccccc46)CCCC5)CC3)no2)cc1 | inconclusive: 1.41 µM [inhibitor, full curve] |  |
| Cc1ccc(C(=O)N2CCc3sc(C(=O)O)cc3C2)cc1 | inactive |  |
| Cn1c(CO[C@H]2CN(C(=O)Nc3ccccc3)C[C@H]2F)nc2ccccc21 | inactive |  |
| CN1CC(=O)N(C2CCC2)Cc2c(NC3CC3)ncnc21 |  | inconclusive: -132% [inhibitor] [at 44.1 µM] |
| COCCN1C(=O)CS(=O)(=O)C12CCN(C(=O)Cc1ccc(Cl)cc1)CC2 | inconclusive: 0.0631 µM [inhibitor, single point] |  |
| O=C(NC1CC(=O)N(CCc2cccc(Cl)c2)C1)c1ccsc1 (stereo not drawn) | inactive |  |
| CSCC(=O)N1CCN(C)C2(CCC(=O)N(CC3CC3)CC2)C1 (stereo not drawn) | inactive |  |
| O=C(Cc1c[nH]c2ncc(-c3cccnc3)cc12)Nc1ccc(F)cc1 | inconclusive: 7.08 µM [inhibitor, partial curve, poor fit] |  |
| COc1ccc(NC(=O)NC2COc3ccccc3C2)c(OC)c1 (stereo not drawn) | inconclusive: 8.91 µM [inhibitor, partial curve] |  |
| Cc1noc(C)c1CCCNC(=O)C1CCN(C(=O)N2CC3CC(C2)[C@H]2CCCC(=O)N2C3)CC1 (stereo partly drawn) | inconclusive: 6.31 µM [inhibitor, single point] |  |
| CN(C)c1ccc(CN2CCC3(CN[S+](=O)([O-])c4ccccc4N3)C2)cc1 (stereo not drawn) | inconclusive: 3.55 µM [inhibitor, partial curve] |  |
| CCOc1ccc(CN2CCCC(COc3ccccc3C(=O)NC(C)C)C2)cc1 (stereo not drawn) | inactive |  |
| CC(C)(C)c1ccc(-c2nc3cc(NC(=O)c4cc5ccccc5o4)ccc3o2)cc1 | inconclusive: 8.91 µM [inhibitor, partial curve, poor fit] |  |
| COc1ccc(Nc2cc3c(cn2)CN(Cc2ccncc2)CCN3)cc1OC | inconclusive: 31.6 µM [inhibitor, single point] |  |
| O=c1cc(-c2ccccc2)nc(SCc2nc(-c3ccc(C(F)(F)F)cc3)no2)[nH]1 | inconclusive: 14.1 µM [inhibitor, partial curve, poor fit] |  |
| O=C(N1CCC2(CC1)CN(c1ccncn1)CC2CO)C1(c2ccccc2)CC1 (stereo not drawn) | inactive |  |
| C=Cc1ccc(Cn2c(=O)c(-c3noc(CC)n3)c3n(c2=O)CCCC3)cc1 | inactive |  |
| CCn1nc(C)c(CNC(=O)C2CCN(C(=O)N3CC4CC(C3)[C@H]3CCCC(=O)N3C4)CC2)c1C (stereo partly drawn) | inactive |  |
| COc1ccc(CCNC(=O)c2ccc3c(c2)N(Cc2ccc(C)cc2)CCS3)cc1OC | inconclusive: 8.91 µM [inhibitor, partial curve] |  |

| SMILES | Potency | activity, negative = inhibition |
| --- | --- | --- |
| O=C(CC1CCN(S(=O)(=O)c2ccc3c(c2)CCCC3)C1)NCc1ccccc1 (stereo not drawn) | inactive |  |
| Cc1cc(N2CCN(C)CC2)nc2ccc(NC(=O)Nc3ccccc3Br)cc12 | inconclusive: 1.41 µM [inhibitor, full curve, poor fit] |  |
| Cc1c(C(=O)Nc2ccc(F)c(F)c2)oc2ccc(S(=O)(=O)N3CCCCC3)cc12 | inconclusive: 10 µM [inhibitor, single point] |  |
| COc1ccc(-c2nn(-c3ccccc3C)cc2CN(C)Cc2nonc2C)cc1F | inconclusive: 8.91 µM [inhibitor, partial curve] |  |
| Cc1noc(C)c1CN1CCCCC1c1cccnc1 (stereo not drawn) | inactive |  |
| O=C1OC[C@@H]2CCNCc3ccccc3N12 | inconclusive: 10 µM [inhibitor, partial curve, poor fit] |  |
| CN(CC(=O)Nc1cccc(Cl)c1)S(=O)(=O)c1ccc2[nH]c3c(c2c1)CCCC3 | inactive |  |
| O=C1NC[C@H]2CN(Cc3ccccc3)CCN12 | inconclusive: 39.8 µM [inhibitor, single point] |  |
| CCOC(=O)C1(Cc2ccc(F)cc2F)CCCN(C(=O)c2c(C)nc3ncccn23)C1 (stereo not drawn) | inactive |  |
| CC(NC(=O)c1cccc2c1CCN2C(=O)Nc1ccc(F)cc1)c1ccccn1 (stereo not drawn) | inconclusive: 8.91 µM [inhibitor, partial curve] |  |
| CN(CCN1CCOCC1)C(=O)c1cc(COc2cccc(F)c2)[nH]n1 | inactive |  |
| O=C(CCc1ccccc1)N1CCC(c2n[nH]c(=O)n2-c2ccccc2)CC1 | inconclusive: 3.98 µM [inhibitor, single point] |  |
| O=C(NCc1ccccc1)[C@H]1CN2CCC1C[C@@H]2Cn1cc(CC2CCCCC2)nn1 (stereo partly drawn) | inconclusive: 31.6 µM [inhibitor, single point] |  |
| CC1CCCCN1CCCNC(=O)c1cc2c(s1)CN(C1CCCC1)C2 (stereo not drawn) | inconclusive: 8.91 µM [inhibitor, partial curve, poor fit] |  |
| O=S(=O)(c1ccccc1)N1CCCC2(CC(c3ccccc3)=NO2)C1 (stereo not drawn) |  | inconclusive: -45% [inhibitor] |
| CC1CCN(C(=O)Cn2cc(SCc3ccccc3)c3ccccc32)CC1 | inconclusive: 10 µM [inhibitor, single point] |  |
| Cc1cc(C)cc(C(=O)N2CCC[C@H]2c2nc(-c3ccccc3)no2)c1 | inactive |  |
| CC[C@H](C)[C@H](N)C(=O)N1CCC(Cn2cc(C3CCCC3)nn2)CC1 | inconclusive: 8.91 µM [inhibitor, single point] |  |
| CC1CCN(C(=O)Cn2cc(SCc3cccc(F)c3)c3ccccc32)CC1 | inconclusive: 17.8 µM [inhibitor, single point] |  |
| CCOC(=O)c1c(NC(=O)CS(=O)(=O)c2ccc(C)cc2)sc2c1CCC(C)C2 (stereo not drawn) | inactive |  |
| Cc1ccc2nc(-c3ccccc3O)c(Nc3ccccc3C)n2c1 | active: 1.41 µM |  |
| O=C(Nc1cccc(-c2nnc3n2CCCC3)c1)c1ccc2c(c1)OCO2 | inconclusive: 3.98 µM [inhibitor, full curve, poor fit] |  |
| Cc1nc2c(NC(=O)Nc3cccc(C(F)(F)F)c3)cccn2n1 | inactive |  |

| SMILES | Potency | activity, negative = inhibition |
| --- | --- | --- |
| CSc1ccc(C(=O)N2CCC(n3nccc3NC(=O)CC(C)C)CC2)cc1 | inconclusive: 15.8 µM [inhibitor, partial curve, poor fit] |  |
| Cc1ccc(CN2C(=O)[C@@H]3C[C@@H](O)CN3C3(CN(CC4CCCCC4)C3)C2=O)o1 | inconclusive: 15.8 µM [inhibitor, single point] |  |
| CC1CCN(c2nnc(-n3cccc3CNc3cccc(F)c3)s2)CC1 | inconclusive: 12.6 µM [inhibitor, single point] |  |
| Cc1cc(C)c(C(=O)N2CC(c3nc(CCN(C)C(=O)C4CC4)no3)C2)c(C)c1 | inactive |  |
| CC1(c2ccccc2)N(Cc2cccnc2)C(=O)OC12CCN(C(=O)COc1ccccc1C(N)=O)CC2 (stereo not drawn) | inconclusive: 8.91 µM [inhibitor, single point] |  |
| Fc1ccc(CNC2(Cc3cc(-c4ccccn4)on3)COC2)cc1 | inconclusive: 10 µM [inhibitor, partial curve] |  |
| CC(C)CS(=O)(=O)N[C@H](C)c1onc(-c2ccc(Cl)cc2)c1C(=O)O | inactive |  |
| Cc1noc(-c2cn(C3CCN(C(=O)Cc4ccc(OC(F)(F)F)cc4)CC3)nn2)n1 | inconclusive: 0.0891 µM [inhibitor, full curve, poor fit] |  |
| CN(C)S(=O)(=O)CCCN1CCC2(CC1)NC(=O)CC2C(=O)O (stereo not drawn) | inactive |  |
| CC(=O)N1c2ccc(S(=O)(=O)NCC3CCC(C(=O)Nc4ccccc4C)CC3)cc2CC1C (stereo not drawn) | inconclusive: 17.8 µM [inhibitor, single point] |  |
| COC(=O)C1=C(C)N=C2SC=C(CC(=O)N(C)Cc3ccco3)N2C1c1ccc(Cl)cc1 (stereo not drawn) | inconclusive: 2.51 µM [inhibitor, partial curve] |  |
| CCCCN(C)CCCNC(=O)c1cc(=O)[nH]c2ccc(S(=O)(=O)N3CCCCC3)cc12 | inactive |  |
| CCOc1ccc(CC(=O)Nc2ccc3c(c2)N(C)C(=O)c2ccccc2S3)cc1OCC | inactive |  |
| Cc1ccc(NC(=O)Cn2c(C)cc3nc4n(c(=O)c32)CCCC4)c(C)c1 | inactive |  |
| O=C(COc1ccc(Cl)cc1)Nc1sc2c(c1C(=O)Nc1cccc(Cl)c1)CCCC2 | inactive |  |
| O=C(c1ccc(CC2CCN(C(=O)c3nccc4ccccc34)CC2)cc1)N1CCOCC1 | inconclusive: 8.91 µM [inhibitor, single point] |  |
| CCc1ccc(OCC(=O)N(Cc2ccc(C)cc2)Cc2ccco2)cc1 | inconclusive: 11.2 µM [inhibitor, single point] |  |
| CCCN1C(=O)C(O)(CC(=O)c2ccc(CC)cc2)c2cc(Br)ccc21 (stereo not drawn) | inconclusive: 17.8 µM [inhibitor, single point] |  |
| CC(C)c1noc(-c2cccn3c(CNC(=O)c4ccncc4)nnc23)n1 | inconclusive: 2.51 µM [inhibitor, partial curve, poor fit] |  |
| O=C([C@@H]1C[C@H](Oc2cccnc2)CN1C(=O)c1ccsc1)N1CCOCC1 | inactive |  |
| CN(Cc1ccccc1)C(=O)CCS(=O)(=O)c1cc(Br)cc2c1N(C(=O)C1CC1)CC2 | inconclusive: 8.91 µM [inhibitor, partial curve] |  |
| CN1CCC(NC[C@H]2COCc3nc4cc(F)ccc4n32)CC1 | inconclusive: 10 µM [inhibitor, partial curve] |  |
